Results: PubChem BioAssay (NCATS)
Some of the results follow. The main result of the screen is listed elsewhere. These columns were measured beside it and carry no call. Compounds called inactive in the main read-out are mostly missing here. Potencies come from curve fits of mixed quality, noted in brackets.

biological target: Catechol O-methyltransferase (Homo sapiens) (UniProt P21964); assay: Confirmatory Screen for Target Class Profiling of Small Molecule Inhibitors of Methyltransferases (AID 1745852); settings: MTase-Glo luminescence, SAH detection, recombinant enzyme; measured here: COMT inhibition potency;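 note: inhibitor potency for blocking SAH production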
Tags give direction and shape of the fitted curve.

Chain of UniProt P21964 (P21964 whole entry, looked up): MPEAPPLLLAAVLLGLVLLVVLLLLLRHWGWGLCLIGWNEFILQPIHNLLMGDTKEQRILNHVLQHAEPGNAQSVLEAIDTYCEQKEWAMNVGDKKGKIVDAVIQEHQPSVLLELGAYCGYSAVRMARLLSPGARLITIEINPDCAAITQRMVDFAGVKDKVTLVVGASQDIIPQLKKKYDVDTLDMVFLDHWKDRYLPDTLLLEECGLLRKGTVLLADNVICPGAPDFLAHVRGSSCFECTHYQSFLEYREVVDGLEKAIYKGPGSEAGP

`C=C1C(=O)OC2/C=C(/C)C3=CC(=O)C(C)(CC(OC(=O)/C(C)=C/COC(C)=O)C12)O3` (stereo not drawn) was tested. Which IC50 did it give?
The IC50 was 0.663 µM [falling, full curve].

How did the IC50 turn out when `C[C@]12CC[C@@H]3c4ccc(O)c(O)c4CC[C@H]3[C@@H]1CCC2=O` was run?
The IC50 was 12.1 µM [falling, full curve].

Which IC50 does the source give for `CC1=C2CC3C(CCC3(C)O)C(C)(O)CC2OC1=O` (stereo not drawn) here?
Its IC50 is 1.36 µM [falling, full curve].

`OC1COC(OCC2OC(OCCc3ccccc3)C(O)C(O)C2O)C(O)C1O` (stereo not drawn) was tested. Which IC50 did it give?
Its IC50 is 5.27 µM [falling, partial curve].

`CC1=CC(=O)CC(C)(C)C1CCC(C)O[C@@H]1O[C@H](CO[C@@H]2OC[C@@H](O)[C@H](O)[C@H]2O)[C@@H](O)[C@H](O)[C@H]1O` (stereo partly drawn) was tested. Which IC50 did it give?
Its IC50 is 5.27 µM [falling, partial curve].

`COc1cc(/C=C/C(=O)O[C@H]2[C@@H]3C=CO[C@@H](O[C@@H]4O[C@H](CO)[C@@H](O)[C@H](O)[C@H]4O)[C@@H]3[C@@]3(CO)O[C@@H]23)ccc1O` was tested. Which IC50 did it give?
Its IC50 is 8.35 µM [falling, partial curve].

Which IC50 does the source give for `COc1c2cc(c(O[C@@H]3O[C@H](CO)[C@@H](O)[C@H](O)[C@H]3O)c1OC)CCCCC(O)CCc1ccc(O)c-2c1` (stereo partly drawn) here?
The IC50 was 1.48 µM [falling, full curve].

How did the IC50 turn out when `C=C1C(OC2OC(CO)C(O)C(O)C2O)CC2C(C)(C)C(O)CCC2(C)C1CC/C(C)=C\COC(=O)CC(=O)O` (stereo not drawn) was run?
Its IC50 is 5.69 µM [falling, partial curve].

With `CSC(=O)OCC1=C[C@@H]2OC(=O)C3=CO[C@@H](O[C@@H]4O[C@H](CO)[C@@H](O)[C@H](O)[C@H]4O)[C@H]1[C@@H]32` as the molecule, how does the IC50 read?
Its IC50 is 4.7 µM [falling, partial curve].

With `C/C=C/c1cc(OC)c2c(c1)[C@@H](C)[C@@H](c1ccc(O)c(OC)c1)O2` as the molecule, how does the IC50 read?
The IC50 was 13.3 µM [falling, partial curve].

biological target: Histamine N-methyltransferase (Homo sapiens) (UniProt P50135); assay: as above; settings: MTase-Glo luminescence, SAH detection, recombinant enzyme; measured here: HNMT inhibition potency
Chain of UniProt P50135 (P50135 whole entry, looked up): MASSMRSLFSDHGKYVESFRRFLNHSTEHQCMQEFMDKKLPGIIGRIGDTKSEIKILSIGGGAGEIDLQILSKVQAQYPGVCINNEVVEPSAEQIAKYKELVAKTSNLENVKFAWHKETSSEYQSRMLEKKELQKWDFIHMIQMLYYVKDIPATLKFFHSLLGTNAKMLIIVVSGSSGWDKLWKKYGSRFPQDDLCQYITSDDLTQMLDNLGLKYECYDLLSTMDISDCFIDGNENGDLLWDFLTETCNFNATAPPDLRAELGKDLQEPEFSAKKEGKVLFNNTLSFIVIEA

`CN(C)CCCCCCNC(=O)c1cccc(-c2cc(O)c3ncccc3c2)c1` was tested. Which IC50 did it give?
Its IC50 is 17.2 µM [falling, partial curve].

`O=c1cc(O)cc(/C=C\c2ccc(O)c(O)c2)o1` was tested. Which IC50 did it give?
Its IC50 is 21.7 µM [falling, single point].

How did the IC50 turn out when `COc1ccc(-c2cnc3ccc(NCc4ccc(S(N)(=O)=O)cc4)nn23)cc1OC` was run?
Its IC50 is 24.1 µM [falling, partial curve].
